Test results as given in PubChem BioAssay AID1476 (National Center for Advancing Translational Sciences (NCATS), 2009).
Where “and” joins values, the source holds several entries; their conditions need not be identical. Identical values can stand only once. Screen size: about 200,000 compounds; about 4,500 (2.2%) were called active. The inconclusive results got no clear call from the source; some entries with a clear call stand among them for comparison. Calls come from the whole dose curve; as a rule, active = well fitted inhibition curve with a large enough effect; inconclusive = small, poorly fitted or top-dose-only effect, or effect the other way; inactive = flat fitted curve, though single readings scatter. Potencies of inconclusive entries are doubtful fits and often do not repeat.

Target: Cruzipain (Trypanosoma cruzi) (UniProt P25779)
UniProt P25779, sequence (P25779 whole entry, looked up): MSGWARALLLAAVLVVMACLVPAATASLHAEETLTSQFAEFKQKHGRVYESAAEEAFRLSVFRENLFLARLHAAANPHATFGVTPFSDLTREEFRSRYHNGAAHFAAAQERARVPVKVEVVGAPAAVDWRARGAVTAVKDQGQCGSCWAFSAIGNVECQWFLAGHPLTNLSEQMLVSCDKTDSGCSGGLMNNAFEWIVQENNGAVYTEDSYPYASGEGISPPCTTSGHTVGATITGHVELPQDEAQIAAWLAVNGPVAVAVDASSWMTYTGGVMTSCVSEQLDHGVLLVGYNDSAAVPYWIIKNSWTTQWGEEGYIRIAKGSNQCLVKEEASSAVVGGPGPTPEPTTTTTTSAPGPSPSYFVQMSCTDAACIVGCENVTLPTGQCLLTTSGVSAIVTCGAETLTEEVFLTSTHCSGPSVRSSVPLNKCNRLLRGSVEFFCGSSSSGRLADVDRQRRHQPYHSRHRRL
Test: qHTS Assay for Promiscuous and Specific Inhibitors of Cruzain (without detergent); note: nearly all actives have a fitted effect of over 40% in size;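 for max response, negative = inhibition: plate controls were enzyme without inhibitor for no effect and buffer without enzyme for full effect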
Settings: purified cruzain, Z-FR-AMC fluorescence, no detergent
Summary of the method: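 Purified cruzain at 1.5 nM, pre-incubated 15 min with compound at room temperature in 100 mM sodium acetate pH 5.5, 5 mM DTT, 0.00005% Triton X-100. Reaction started with 2 uM Z-FR-AMC; AMC fluorescence increase over 60 s gives rate.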
Potency is the fitted concentration of half-maximal effect; tags give direction and shape of the fitted curve.

| Compound | max response, negative = inhibition | Potency |
| --- | --- | --- |
| CC(=O)N1CCC[C@@]2(CCN(c3ccncc3)C2)C1 | inactive: -6.38% |  |
| Cc1ccccc1CN1CCc2nc(N3CCN(c4ncccn4)CC3)ncc2C1 | inactive: 3.69% |  |
| CCc1nnc(NC(=O)c2ccc(S(=O)(=O)N3CCCc4ccccc43)cc2)o1 |  | inconclusive: 39.8 µM [activator, single point] |
| O=S(=O)(c1ccc(Cl)cc1)n1ccc(-c2cccc(OCc3c(F)cccc3Cl)c2)n1 |  | active: 20 µM |
| O=C(Nc1ccc(Cl)cc1)C1C2CCC3C(CCC21)C3(Cl)Cl (stereo unspecified) |  | inconclusive: 25.1 µM [inhibitor, single point] |
| COc1ccc(NCc2cc3cc4c(cc3n(CC(=O)Nc3cccc(F)c3)c2=O)OCO4)cc1 |  | inconclusive: 10 µM [inhibitor, partial curve, poor fit] |
| COc1ccc2nc(NC(=O)c3nc(S(=O)(=O)Cc4ccccc4F)ncc3Cl)sc2c1 |  | inconclusive: 20 µM [inhibitor, single point] |
| Cc1nn(C)c(C)c1S(=O)(=O)N(CC(=O)NC1CCCCCC1)c1ccc(C(C)C)cc1 |  | inconclusive: 12.6 µM [activator, partial curve] |
| COc1c(C(C)(C)C)cc([N+](=O)[O-])c(C)c1[N+](=O)[O-] | inactive: -5.48% |  |
| COc1ccc(NC2CC(=O)N(c3cccc(C)c3)C2=O)cc1 (stereo unspecified) |  | inconclusive: 31.6 µM [inhibitor, single point] |
| COc1ccc(OC2C(=O)N(c3cc(C)ccc3C)C2c2ccc(OC)c(OC)c2)cc1 (stereo unspecified) |  | inconclusive: 39.8 µM [activator, single point] |
| C=C(COC)C1=CCC(C(=O)OC)(C(=O)OC)[C@@H](C[N+](=O)[O-])c2ccccc21 | inactive: -7.84% and inactive: 5.57% |  |
| COCCn1nnnc1C(C(C)C)N(Cc1ccccc1)Cc1cc2cc(OC)ccc2[nH]c1=O (stereo unspecified) |  | inconclusive: 31.6 µM [activator, single point] |
| CCOC(=O)c1sc(-c2ccccc2)cc1NC(=O)CSc1nnnn1C |  | inconclusive: 31.6 µM [activator, single point] |
| O=C(NC1CCCCC1)c1ccc2c(c1)sc1nc(-c3ccc(F)cc3)cn12 |  | inconclusive: 39.8 µM [activator, single point] |
| Cc1cc2oc(=O)cc(CN3CCN(S(=O)(=O)/C=C/c4ccccc4)CC3)c2cc1C |  | inconclusive: 31.6 µM [inhibitor, single point] |
| CCSc1nnc(NC(=O)C(Cc2ccccc2)n2cccc2)s1 (stereo unspecified) |  | inconclusive: 39.8 µM [inhibitor, single point] |
| CCOCCc1nnc(NC(=O)C(=O)c2cc(C)n(-c3cccc(C)c3)c2C)s1 | inactive: 7.95% |  |
| CN(C)S(=O)(=O)Oc1cccc(C(=O)Nc2ccc(Cl)c(Cl)c2)c1 | inactive: 4.89% |  |
| Cc1ccc(-c2csc(NC(=O)Cn3cnc4c3c(=O)n(C)c(=O)n4C)n2)cc1C |  | inconclusive: 39.8 µM [inhibitor, single point] |
| Cc1ccc(Nc2cc(C)nc(-n3nc(C)cc3C)n2)cc1 |  | inconclusive: 25.1 µM [activator, single point] |

| Compound | max response, negative = inhibition | Potency |
| --- | --- | --- |
| O=C(COC(=O)[C@H](Cc1c[nH]c2ccccc12)NC(=O)c1ccc(Cl)cc1)Nc1ccc2c(c1)OCO2 |  | active: 20 µM |
| Cn1cc(C(=O)N/N=C/C2=C(N3CCOCC3)C(=C\c3ccccc3)/CC2)ccc1=O |  | inconclusive: 31.6 µM [activator, single point] |
| Cc1nc2c3ccccc3nc(NNC(=O)CCC(=O)N3CCN(c4cccc(Cl)c4)CC3)n2n1 |  | inconclusive: 39.8 µM [activator, partial curve] |
| CCN(CC(O)Cn1c2ccccc2c2ccccc21)S(=O)(=O)c1ccc(F)cc1 (stereo unspecified) |  | inconclusive: 31.6 µM [activator, single point] |
| CC1CCN(C(=O)CSc2c3c(nc4ccc(Cl)cc24)CCCC3)CC1 | inactive: -18.4% |  |
| CC1=C(c2ccc(C(C)C)cc2)S(=O)(=O)NC1=NCc1ccccc1C | inactive: -4.56% |  |
| NCc1ccc(-c2nc3ccccc3o2)cc1 |  | active: 12.6 µM |
| OCCOCCN1CCN([C@@H](c2ccccc2)c2ccc(Cl)cc2)CC1 | inactive: -0.236% |  |
| Cc1ccc(NC(=O)CSc2nc3ccc(Br)cc3[nH]2)c(C)c1 | inactive: 1.07% |  |
| COc1ccc(CCN2CCC(CNC(=O)c3cnn(-c4ccc(C)cc4)c3C3CCN(C(=O)OC(C)(C)C)CC3)CC2)cc1 | inactive: -20.7% |  |
| Cc1ccc2c(c1)[nH]c1c(=O)n(CCC3=CCCCC3)cnc12 |  | active: 20 µM |
| COCCNC(=O)CCCn1c(=O)c2ccccc2n(CC(=O)NCCC2=CCCCC2)c1=O | inactive: 14.8% |  |
| N#Cc1c(NC(=O)CCC(=O)O)sc2c1CCCC2 | inactive: 3.79% |  |
| Cc1ccc(NC(=O)Cn2c(=O)n(CC3CCC(C(=O)NC(C)C)CC3)c(=O)c3sccc32)cc1 (stereo unspecified) | inactive: -1.63% |  |
| O=C(c1ccc([N+](=O)[O-])cc1)n1nc(-c2ccccc2)nc1NCc1ccc(F)cc1 |  | inconclusive: 39.8 µM [inhibitor, single point] |
| COc1cc2cc(/C=C/C(=O)c3ccco3)c(Cl)nc2cc1OC |  | inconclusive: 25.1 µM [activator, single point] |
| COc1ccc(S(=O)(=O)c2c(O)c(C)cc(NS(=O)(=O)c3ccc(Cl)cc3)c2C(C)C)cc1 |  | inconclusive: 39.8 µM [inhibitor, single point] |
| COC(=O)[C@@]1(Cc2ccc(OC)cc2)[C@H]2c3cc(C(=O)N4CCCC4)n(Cc4ccc(Cl)c(C(F)(F)F)c4)c3C[C@H]2CN1C(=O)c1ccccc1 |  | inconclusive: 39.8 µM [activator, single point] |
| COc1ccc(-c2noc(-c3ccc(N4CCN(C)CC4)c([N+](=O)[O-])c3)n2)cc1 |  | inconclusive: 6.31 µM [inhibitor, single point] |
| CCc1sc(Nc2cccc(C)c2)nc1-c1cc2cccc(OC)c2oc1=O |  | inconclusive: 31.6 µM [inhibitor, single point] |
